Experimental data taken from the supplement of paper PMC4967469.
Lines with a small IC50 respond at low doses; a limit (>, <) means that the fit lies beyond the doses tested. The AUC spans the tested range (256-fold, ending at the top dose) of the same fit; it is 1 without any effect and falls as sensitivity rises. For part of these data: The top dose, if marked as inferred, was calculated from the reported fits.

Tests used:
Assay in all cases: Viability of human cancer cell lines after 72 h of drug (GDSC screen)
IOX2 = compound: O=C(O)CNC(=O)c1c(O)c2ccccc2n(Cc2ccccc2)c1=O [IOX2]; conditions: top dose 0.1 µM; top dose inferred
Experimental: (§1)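 Human cancer cell lines in 384-well plates, medium with 10% serum, drug for 72 h over a 256-fold dose range (nine 2-fold or five 4-fold steps up to the top dose). Adherent lines were fixed and stained with the nucleic acid dye Syto60, suspension lines read with resazurin; signal relative to control wells, capped at 0 and 100%. One two-parameter sigmoid per drug and line, fitted in a mixed model over all curves with the slope shared within a line.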

Mitomycin C = compound: CO[C@@]12[C@H](COC(N)=O)C3=C(C(=O)C(C)=C(N)C3=O)N1C[C@@H]1N[C@@H]12 [Mitomycin C]; conditions: top dose 16 µM
Experimental: as §1

Bosutinib = compound: COc1cc(Nc2c(C#N)cnc3cc(OCCCN4CCN(C)CC4)c(OC)cc23)c(Cl)cc1Cl [Bosutinib]; conditions: top dose 2 µM
Experimental: as §1

Midostaurin = compound: CO[C@@H]1[C@H](N(C)C(=O)c2ccccc2)C[C@H]2O[C@]1(C)n1c3ccccc3c3c4c(c5c6ccccc6n2c5c31)C(=O)NC4 [Midostaurin]; conditions: top dose 0.512 µM; top dose inferred
Experimental: as §1

NVP-BHG712 = compound: Cc1ccc(C(=O)Nc2cccc(C(F)(F)F)c2)cc1Nc1nc(-c2cccnc2)nc2c1cnn2C [NVP-BHG712]; conditions: top dose 10.24 µM; top dose inferred
Experimental: as §1

Roscovitine = compound: CC[C@H](CO)Nc1nc(NCc2ccccc2)c2ncn(C(C)C)c2n1 [Roscovitine]; conditions: top dose 16 µM; top dose inferred
Experimental: as §1

Cell Line | AUC (IOX2) | IC50 (IOX2) [nM] | AUC (Mitomycin C) | IC50 (Mitomycin C) [nM] | AUC (Bosutinib) | IC50 (Bosutinib) [nM] | AUC (Midostaurin) | IC50 (Midostaurin) [nM] | AUC (NVP-BHG712) | IC50 (NVP-BHG712) [nM] | AUC (Roscovitine) | IC50 (Roscovitine) [nM]
BB49-HNC (head and neck, adherent) | 0.945 | > 100 | 0.421 | 558 | 0.977 | > 2000 | 0.916 | > 512 | 0.936 | > 10200 | 0.9 | > 16000
EB-3 (Burkitt lymphoma, suspension) | 0.979 | > 100 | 0.674 | 3330 | 0.984 | > 2000 | 0.956 | > 512 | 0.826 | 7620 | 0.896 | > 16000
LS-513 (large intestine, adherent) | 0.986 | > 100 | 0.507 | 1040 | 0.956 | > 2000 | 0.983 | > 512 | 0.666 | 1890 | 0.867 | 15400
KNS-42 (glioma, adherent) | 0.977 | > 100 | 0.514 | 1100 | 0.984 | > 2000 | 0.952 | > 512 | 0.889 | > 10200 | 0.94 | > 16000
GDM-1 (acute myeloid leukaemia, suspension) | 0.986 | > 100 | 0.359 | 416 | 0.974 | > 2000 | 0.749 | 160 | 0.175 | 70.4 | 0.906 | > 16000
RL (B-cell lymphoma, suspension) | 0.989 | > 100 | 0.786 | 6290 | 0.99 | > 2000 | 0.989 | > 512 | 0.501 | 642 | 0.99 | > 16000
COLO-684 (endometrium, suspension) | 0.983 | > 100 | 0.447 | 702 | 0.967 | > 2000 | 0.951 | > 512 | 0.897 | > 10200 | 0.922 | > 16000
U-87-MG (glioma, adherent) | 0.98 | > 100 | 0.543 | 1340 | 0.965 | > 2000 | 0.941 | > 512 | 0.955 | > 10200 | 0.971 | > 16000
NCI-H720 (lung carcinoid, suspension) | 0.991 | > 100 | 0.613 | 1990 | 0.992 | > 2000 | 0.992 | > 512 | 0.989 | > 10200 | 0.986 | > 16000
NB10 (neuroblastoma, adherent) | 0.987 | > 100 | 0.198 | 131 | 0.988 | > 2000 | 0.976 | > 512 | 0.823 | 5870 | 0.925 | > 16000
TE-9 (oesophagus, adherent) | 0.984 | > 100 | 0.376 | 447 | 0.95 | > 2000 | 0.872 | > 512 | 0.987 | > 10200 | 0.886 | > 16000
CHP-126 (neuroblastoma, suspension) | 0.986 | > 100 | 0.17 | 95.6 | 0.987 | > 2000 | 0.963 | > 512 | 0.965 | > 10200 | 0.984 | > 16000
SK-MM-2 (myeloma, suspension) | 0.98 | > 100 | 0.645 | 2570 | 0.987 | > 2000 | 0.921 | > 512 | 0.863 | 9470 | 0.985 | > 16000
NCI-H345 (small cell lung carcinoma, suspension) | 0.989 | > 100 | 0.752 | 5570 | 0.99 | > 2000 | 0.99 | > 512 | 0.989 | > 10200 | 0.957 | > 16000
SK-PN-DW (Ewing sarcoma, adherent) | 0.976 | > 100 | 0.153 | 79.9 | 0.881 | > 2000 | 0.85 | 410 | 0.922 | > 10200 | 0.958 | > 16000
IST-MEL1 (melanoma, adherent) | 0.95 | > 100 | 0.101 | < 62.5 | 0.915 | > 2000 | 0.895 | > 512 | 0.92 | > 10200 | 0.937 | > 16000
LOUCY (T-cell lymphoblastic leukaemia, suspension) | 0.99 | > 100 | 0.08 | < 62.5 | 0.979 | > 2000 | 0.927 | > 512 | 0.968 | > 10200 | 0.863 | 9880
KGN (ovary, adherent) | 0.927 | > 100 | 0.275 | 197 | 0.925 | > 2000 | 0.696 | 130 | 0.88 | > 10200 | 0.889 | > 16000
OPM-2 (myeloma, suspension) | 0.993 | > 100 | 0.779 | 5340 | 0.994 | > 2000 | 0.948 | > 512 | 0.809 | 4170 | 0.962 | > 16000
A101D (melanoma, adherent) | 0.948 | > 100 | 0.305 | 248 | 0.86 | > 2000 | 0.852 | > 512 | 0.82 | 7710 | 0.877 | > 16000
VA-ES-BJ (soft tissue, adherent) | 0.969 | > 100 | 0.194 | 115 | 0.931 | > 2000 | 0.805 | 277 | 0.946 | > 10200 | 0.905 | > 16000
